Laboratory results from publication PMC12136788.
Some of the results follow.

B1: 114483548_114483668_835_3pUTR_ENSG00000163349_ENST00000369558|human|control|control (ssRNA)
RNA: GGGAGUUCUACAGUCCGACGAUCCAAGAUUUUAAUAGCCACAAUUUCCUUGGUGCUCCUCUUCCAGCACUUAGCCACCUGUCCAAAUGUCCCCCGGCCUAGGAACUCCAAGACUUCAUAGCUAUUGGUCAUAGAGCAAAGGAUCAACAGAGGAUUGAGCAUCA
B2: chr7:7679991:7679992:-_ENSG00000106399_ENST00000396682|hu_hu|hu_hu_hu_mus_False|48_88 (ssRNA)
RNA: GGGAGUUCUACAGUCCGACGAUCUGGGAUGAAUCUUUUCCAGCUUCCCUACGAAGCACACGGGCCGGUCGAUAUACUGUGGUAACAUGCCGGCGUUGACGCGCGCUUUGGGGAGCUGCAUUAUGUCCUCCAUGAUUCUGCCGCCAACAGAGGAUUGAGCAUCA
B3: chr14:89307221:89307222:+_ENSG00000165533_ENST00000346301|hu_mus|hu_hu_hu_mus_False|28_68 (ssRNA)
RNA: GGGAGUUCUACAGUCCGACGAUCUCCUGUUUGGUUAGUGCCAGGGAGCUUCAAAGAUGUGCCAGGGCGUGGAACUUGAGCAAUAGCAUUUUCAUCCAGGAUCAUUUCUGCAAUUCCUUCCUGGUCCACAUCAAUUUCAUCUAUCAACAGAGGAUUGAGCAUCA
B4: chr11:97546686:97546687:+_ENSMUSG00000038437_ENSMUST00000044730|mus_mus|FALSE|FALSE (ssRNA)
RNA: GGGAGUUCUACAGUCCGACGAUCUACGAACUGCCCUUCGUACAAAUAACAUCCGUUAUACAAAGAUACAAGACCCAGGCUAUGCACAAUUCCAGGCUUGGAGGUCGCAGGGGAACACCGUCUCUUGGGCUGAGGAUAUAAAGGCAACAGAGGAUUGAGCAUCA
B5: 142212072_142215241_6041_CDS_ENSG00000175054_ENST00000350721|human|control|control (ssRNA)
RNA: GGGAGUUCUACAGUCCGACGAUCACCCUCAGGUGGGGUUUCAUUUUCAGGAAAACAUAAUUCAACACCUUUUUGAAGAACAAUUAGUGCCUGGUGAACAUCACCCUUGGACCAGAGCCACUUUGCCCUUUCCACGUACAGUUCCAACAGAGGAUUGAGCAUCA
B6: chr4:76703833:76703834:+_ENSG00000138768_ENST00000264904|hu_hu|FALSE|FALSE (ssRNA)
RNA: GGGAGUUCUACAGUCCGACGAUCUUGGAGUUGUUGUUUUUUAAUAAGUUUUGGAGCAAAAUCAAACAAUCUUCAACUACUAUACCUCCAUCACUGUUCCCCUCCUCUGAAAUAAUGUCCAGUAGUCUCUCGAAAGCAUUUUCACAACAGAGGAUUGAGCAUCA
B7: 22898550_23003135_409_CDS_ENSG00000150867_ENST00000376573|human|control|control (ssRNA)
RNA: GGGAGUUCUACAGUCCGACGAUCGUUAAAAAGGUGAUUGUCCACCUUUAUUUUUGAAUAGGCUUUGAAGUCAUCUGGCAUCAACAUAACAGGGAUUUGAACAUGGCUCAGUUCAUUGAUCGAGUGGUUUACCCCCCACAUGAGCAACAGAGGAUUGAGCAUCA
B8: chr8:67243003:67243004:-_ENSMUSG00000031605_ENSMUST00000034017|mus_hu|motif|central (ssRNA)
RNA: GGGAGUUCUACAGUCCGACGAUCGUCACUUGAGAUUAAGCUGCACACUUGUUCGAUGCCAAGAUUGAGAAAUUCUUCACGGAGUACAACAUCUGCAAAAUGUUGCUCUGCAUAGGUGUUGGCCUUGUUCAGAAGGUCGGUACACAACAGAGGAUUGAGCAUCA
B9: chr4:76721835:76721836:+_ENSG00000138768_ENST00000264904|hu_mus|hu_hu_hu_mus_True|58_98 (ssRNA)
RNA: GGGAGUUCUACAGUCCGACGAUCGUUUGGCUGGGGUUCUGAGAUGCCUCUGGAAUAUAACUCAUGUUUGCUAAUAAUCCUAGUUUCCUCUAUGAAAUUCUCUUUGCCAAUCCUCUUCUCUAUUAGUUGCUUUAGUUUCUCUUUCAACAGAGGAUUGAGCAUCA
B10: 15603822_15605163_2305_CDS_ENSMUSG00000021733_ENSMUST00000057015|mouse|control|control (ssRNA)
RNA: GGGAGUUCUACAGUCCGACGAUCCAGAAAGAACGUCGUGAAAAACAAGACGACACACCAGAAGAGCACGUCAGGAACAUAAGGUCCAUGAGGCCCACAAGCUGAUCCCACAAACAUACCAUGGAAGGUCUUACACUCAGAAACCAACAGAGGAUUGAGCAUCA
B11: chr5:93611588:93611589:-_ENSMUSG00000063015_ENSMUST00000058550|mus_mus|FALSE|FALSE (ssRNA)
RNA: GGGAGUUCUACAGUCCGACGAUCUUACUUACUGAAUUACUUUAAAAGAAAAGGUGGGUGGUACUCAAGUGAAGUCAGAAUACAUAGAUCAACAAGCACACAGCUUAGUUAAGUAUUCAACCGAGGCAAGAAAAGGCAAGAGGACAACAGAGGAUUGAGCAUCA
B12: chr1:35650007:35650008:-_ENSG00000116560_ENST00000357214|hu_mus|motif|central (ssRNA)
RNA: GGGAGUUCUACAGUCCGACGAUCCUAACAUCCAUAAAAAGGUAGCUUGCUUACUAAAAUGCCAAGAAUUUAAGUGGUAUCGGAACAAGAAAAGACAAAACCAAACUAGAAUGAAAGCCUAAAUAUCUAAAAUCGGGGUUUUUUCAACAGAGGAUUGAGCAUCA
B13: chr6:89808334:89808335:-_ENSG00000154548_ENST00000452027|hu_hu|FALSE|FALSE (ssRNA)
RNA: GGGAGUUCUACAGUCCGACGAUCUGCUCUUUCUGUUGCUGUUCACCAACUGUUUUUAUGACGAUAACUUCGAGAUCUGGAAUGUGACCGAAAAUGAGAAUGCUUUGCUGUUUGUACUUUAGUUUCAGAAUUGGUAUACCCUUUCAACAGAGGAUUGAGCAUCA
B14: 56000820_56002925_2484_CDS_ENSMUSG00000022601_ENSMUST00000050248|mouse|control|control (ssRNA)
RNA: GGGAGUUCUACAGUCCGACGAUCGCCUCGAACUUCAGGCUUUGGCUGGUGUUUCUUAAGGUGCUUGCUAAGUCCAGAGCCCCUAUGAAAAGACUUUCCACAAAUUGAGCAGAAGUACUUGGACUCUCCUGUGUGAAUACUCAUCAACAGAGGAUUGAGCAUCA
B15: 31017548_31017668_2691_3pUTR_ENSMUSG00000027660_ENSMUST00000118470|mouse|control|control (ssRNA)
RNA: GGGAGUUCUACAGUCCGACGAUCCACUUUUGCUGCCAUACAAAUGAACAGAAUGCCUAGCUACCUUCAUGCAAAUAAGAUGUUAGAAUUCAAUUUUCAAAGCAAGCGACAAACACAAAGCCCUGUCAACCACACACAGGUGUGCAACAGAGGAUUGAGCAUCA
B16: chrX:65951094:65951095:+_ENSMUSG00000000838_ENSMUST00000114657|mus_mus|FALSE|FALSE (ssRNA)
RNA: GGGAGUUCUACAGUCCGACGAUCCUGCCUUGAACUCUCCAGUUGUUUACUGGCUUCUUCAUUUCUCAGUAUAAGAGACAACUUGGUGCGCAGACUUCGAAAGUGCAUGUCAAUCAACAUGUGGGCUCGCUUUGAGGUGACUUCCAACAGAGGAUUGAGCAUCA
B17: chr12:53620312:53620313:+_ENSMUSG00000035133_ENSMUST00000110725|mus_mus|motif|central (ssRNA)
RNA: GGGAGUUCUACAGUCCGACGAUCAGGUUUAAUAGGUGGAGGCACUUUAUGGUUACGUUCAUGAUCGUGACAAUUUGGAGUGCGGUGAACAGGAUACUCAUUUCCUUCCAAAUCUAACCUGUAUCUGGAACGGUCACUAGGUGUCAACAGAGGAUUGAGCAUCA
B18: chr10:80930753:80930754:-_ENSMUSG00000034818_ENSMUST00000145375|mus_hu|FALSE|FALSE (ssRNA)
RNA: GGGAGUUCUACAGUCCGACGAUCGGUGGACAGGACUGUUGUCUGCUGUUGCAUGAGAGCCUGGGCGUAGGCACUGUAGGGGCUGAAGGGCAAUGUGAGGGACGGCGUCAGGAUGCCCAGCUGGCCCACCAUCUGCUGCAUGCGCAACAGAGGAUUGAGCAUCA
B19: chr11:74490848:74490849:-_ENSMUSG00000020745_ENSMUST00000021091|mus_hu|motif|central (ssRNA)
RNA: GGGAGUUCUACAGUCCGACGAUCACAGAUAGCAGAAAGAAAAACAGGAAUUAAUAAUCCAACAUAAAAUGACACUGUCAACGGUUCAGUUUAGUGCCCUAGUUCAAUUGAUUCAACUUCUGCCUUCUUAGGCCUGGUGUGACCCAACAGAGGAUUGAGCAUCA
B20: 32387816_32387936_4361_3pUTR_ENSMUSG00000053774_ENSMUST00000115151|mouse|control|control (ssRNA)
RNA: GGGAGUUCUACAGUCCGACGAUCACUGAACACGCUGUAUAAAUUCUAGUUUUCUUCCACAUUUAUAAAUGAGUAGAAGGCAUAUAUACUGUGUAGGGACGGUAUGAAGACUGAAGGAGGAAACACACACAGAGUACACACCACCAACAGAGGAUUGAGCAUCA
B21: chr9:66794652:66794653:+_ENSMUSG00000036781_ENSMUST00000040917|mus_hu|FALSE|FALSE (ssRNA)
RNA: GGGAGUUCUACAGUCCGACGAUCUUGUACUAGGCGUUUCUUUUUAUGUUUUUUCUUUUCCUCUUCCAAGGACGGAUGUAGUAAAUCUCUAGCCAACAGAGAGAUUAUGAAAGAGGCUCGUAUCCUUUUGGCUUCCCUUUUCAACAACAGAGGAUUGAGCAUCA
B22: chr7:135612270:135612271:-_ENSG00000105887_ENST00000393085|hu_mus|hu_hu_hu_mus_False|1_108 (ssRNA)
RNA: GGGAGUUCUACAGUCCGACGAUCGUUUCUGAGAUGUAUGUUAAAUAGUACUUCAGUGGAAAACAAAACUUAACCUUUUAUUAAUGCGUGUUGUACCAAAAGCAGACAUUUUAGCUUCAUUUAUUCAAAAAUAUUAAGAACAUUCAACAGAGGAUUGAGCAUCA

target: T1, UNK ZnF1-3 (human, UniProt Q9C0B0 31-174); test: nsRBNS (natural sequence RNA bind-n-seq); RBNS binding buffer (assumed for nsRBNS): 25 mM Tris pH 7.5, 150 mM KCl, 3 mM MgCl2, 0.01% Triton X-100, 500 ug/ml BSA, 20 U/ml SUPERase-In, 4 C; UNK is unkempt and MSI1 is Musashi-1; names of the RNAs are library labels; protein concentration not given here; high values mean tight binding
T1 sequence: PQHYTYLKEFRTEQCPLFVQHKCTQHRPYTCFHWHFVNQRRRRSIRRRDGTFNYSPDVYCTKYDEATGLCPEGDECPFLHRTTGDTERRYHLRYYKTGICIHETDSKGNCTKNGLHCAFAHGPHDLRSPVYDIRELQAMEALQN

| Binder | binding signal [enrichment R] |
| --- | --- |
| B1 | 0.56 |
| B2 | 0.421 |
| B3 | 0.907 |
| B4 | 1.32 |
| B5 | 1.09 |
| B6 | 1.18 |
| B7 | 0.845 |
| B8 | 0.789 |
| B9 | 0.406 |
| B10 | 1.2 |
| B11 | 1.58 |
| B12 | 1.41 |
| B13 | 0.89 |
| B14 | 0.862 |
| B15 | 1.21 |
| B16 | 0.828 |
| B17 | 0.843 |
| B18 | 1.1 |
| B19 | 1.01 |
| B20 | 1.51 |
| B21 | 0.634 |
| B22 | 0.663 |
